For experiment [1], the system named is OVCAR4. Kind of experiment: log2 surviving fraction (library drug vs vehicle, or drug + carboplatin vs carboplatin alone; relative to plate median); ovarian cancer lines: OVCAR4 is platinum-sensitive and Ov4Carbo platinum-resistant; higher = more cell survival. As to conditions: library drug concentration 10 µM, 7 days.
Experiment [2] relates to Ov4Carbo. The experiment is described as above. Particulars: library drug concentration 10 µM, 7 days.

log2 surviving fraction data for 22 compounds are collected here from the supplement of paper PMC8047034.

Counter-ions that a name gives are not always drawn. The list shows a part of the results. Repeats are few or missing, and single values can be far off.

Regarding `CN(C/C=C/C#CC(C)(C)C)Cc1cccc2ccccc12` [Terbinafine (Lamisil, Terbinex)], the log2 surviving fraction was -1.34 in experiment [1] (carboplatin co-treatment 0 µM), 0.207 in experiment [1] (carboplatin co-treatment 5 µM), 0.205 in experiment [2] (carboplatin co-treatment 0 µM) and 0.55 in experiment [2] (carboplatin co-treatment 5 µM).

Turning to `O=C(O[C@H]1CN2CCC1CC2)N1CCc2ccccc2[C@@H]1c1ccccc1` [Solifenacin succinate], the log2 surviving fraction in experiment [1] (carboplatin co-treatment 0 µM) was -0.0369; in experiment [1] (carboplatin co-treatment 5 µM), -0.0568; in experiment [2] (carboplatin co-treatment 0 µM), 0.373; in experiment [2] (carboplatin co-treatment 5 µM), -0.526.

Take `NCC[C@H](O)C(=O)N[C@@H]1C[C@H](N)[C@@H](O[C@H]2O[C@H](CN)[C@@H](O)[C@H](O)[C@H]2O)[C@H](O)[C@H]1O[C@H]1O[C@H](CO)[C@@H](O)[C@H](N)[C@H]1O` [Amikacin sulfate]: the log2 surviving fraction in experiment [1] (carboplatin co-treatment 0 µM) came out at 0.771; in experiment [1] (carboplatin co-treatment 5 µM) it was 1.81; in experiment [2] (carboplatin co-treatment 0 µM), 0.667; in experiment [2] (carboplatin co-treatment 5 µM) it was 1.59.

With `CN(C)CCC(c1ccc(Br)cc1)c1ccccn1` (stereo not drawn) [Brompheniramine], the log2 surviving fraction in experiment [1] (carboplatin co-treatment 0 µM) is -0.436; in experiment [1] (carboplatin co-treatment 5 µM), 0.0503; in experiment [2] (carboplatin co-treatment 0 µM), 0.94; in experiment [2] (carboplatin co-treatment 5 µM) it was -0.0171.

As for `C[N+](C)(C)C[C@H](O)CC(=O)[O-]` [L-carnitine (Levocarnitine)], the log2 surviving fraction is -0.524 in experiment [1] (carboplatin co-treatment 0 µM), 0.287 in experiment [1] (carboplatin co-treatment 5 µM), 1.32 in experiment [2] (carboplatin co-treatment 0 µM) and 0.428 in experiment [2] (carboplatin co-treatment 5 µM).

In the case of `NC(=O)c1ncn([C@@H]2O[C@H](CO)[C@@H](O)[C@H]2O)n1` [Ribavirin (Copegus)], the log2 surviving fraction in experiment [1] (carboplatin co-treatment 0 µM) worked out at 0.449; in experiment [1] (carboplatin co-treatment 5 µM), 0.715; in experiment [2] (carboplatin co-treatment 0 µM), 0.292; in experiment [2] (carboplatin co-treatment 5 µM), 0.74.

Turning to `Cc1cc(C2CCCCC2)n(O)c(=O)c1` [Ciclopirox (Penlac)], the log2 surviving fraction was -8.18 in experiment [1] (carboplatin co-treatment 0 µM), -6.76 in experiment [1] (carboplatin co-treatment 5 µM), -7.39 in experiment [2] (carboplatin co-treatment 0 µM) and -6.9 in experiment [2] (carboplatin co-treatment 5 µM).

As to `CCOC(=O)[C@H](CCc1ccccc1)N[C@@H](C)C(=O)N1C(=O)N(C)C[C@H]1C(=O)O` [Imidapril (Tanatril)], the log2 surviving fraction in experiment [1] (carboplatin co-treatment 0 µM) was -0.494; in experiment [1] (carboplatin co-treatment 5 µM), 0.807; in experiment [2] (carboplatin co-treatment 0 µM), 0.276; in experiment [2] (carboplatin co-treatment 5 µM), 0.353.

`COc1ccccc1N1CCN(CC(O)COc2cccc3ccccc23)CC1` (stereo not drawn) [Naftopidil (Flivas)]: the log2 surviving fraction in experiment [1] (carboplatin co-treatment 0 µM) was 0.236; in experiment [1] (carboplatin co-treatment 5 µM), -0.699; in experiment [2] (carboplatin co-treatment 0 µM) it was -0.834; in experiment [2] (carboplatin co-treatment 5 µM), -1.54.

Regarding `CCCCC[C@H](O)/C=C/[C@H]1[C@H](O)CC(=O)[C@@H]1CCCCCCC(=O)O` [Alprostadil (Caverject)], the log2 surviving fraction in experiment [1] (carboplatin co-treatment 0 µM) is 0.65; in experiment [1] (carboplatin co-treatment 5 µM) it was -0.113; in experiment [2] (carboplatin co-treatment 0 µM), 0.154; in experiment [2] (carboplatin co-treatment 5 µM), -0.0592.

Take `N[C@@H](C(=O)N[C@@H]1C(=O)N2C(C(=O)O)=C(Cl)CS[C@H]12)c1ccccc1` [Cefaclor (Ceclor)]: the log2 surviving fraction in experiment [1] (carboplatin co-treatment 0 µM) was -0.696; in experiment [1] (carboplatin co-treatment 5 µM) it was 0.436; in experiment [2] (carboplatin co-treatment 0 µM), 0.0236; in experiment [2] (carboplatin co-treatment 5 µM), 0.0144.

In the case of `COc1ccccc1OCC(O)CN1CCN(CC(=O)Nc2c(C)cccc2C)CC1` (stereo not drawn) [Ranolazine (Ranexa)], the log2 surviving fraction amounted to 0.00813 in experiment [1] (carboplatin co-treatment 0 µM), 0.811 in experiment [1] (carboplatin co-treatment 5 µM), 0.955 in experiment [2] (carboplatin co-treatment 0 µM) and 0.502 in experiment [2] (carboplatin co-treatment 5 µM).

`CC(C)NCC(O)COc1cccc2ccccc12` (stereo not drawn) [Propranolol HCl]: the log2 surviving fraction was -0.0592 in experiment [1] (carboplatin co-treatment 0 µM), -0.529 in experiment [1] (carboplatin co-treatment 5 µM), -0.783 in experiment [2] (carboplatin co-treatment 0 µM) and -1.39 in experiment [2] (carboplatin co-treatment 5 µM).

As to `CN(C)CCC(c1ccccc1)c1ccccn1` (stereo not drawn) [Pheniramine Maleate], the log2 surviving fraction in experiment [1] (carboplatin co-treatment 0 µM) was -0.591; in experiment [1] (carboplatin co-treatment 5 µM) it was -0.289; in experiment [2] (carboplatin co-treatment 0 µM), -0.691; in experiment [2] (carboplatin co-treatment 5 µM) it was -0.706.

As to `CC(=O)OCC(=O)[C@@]12OC(C)(C)O[C@@H]1C[C@H]1[C@@H]3C[C@H](F)C4=CC(=O)C=C[C@]4(C)[C@@]3(F)[C@@H](O)C[C@@]12C` [Fluocinonide (Vanos)], the log2 surviving fraction is -0.229 in experiment [1] (carboplatin co-treatment 0 µM), 0.0201 in experiment [1] (carboplatin co-treatment 5 µM), -0.00579 in experiment [2] (carboplatin co-treatment 0 µM) and 0.9 in experiment [2] (carboplatin co-treatment 5 µM).

On to `Cc1ccc(C)c(OCCCC(C)(C)C(=O)O)c1` [Gemfibrozil (Lopid)], for which the log2 surviving fraction in experiment [1] (carboplatin co-treatment 0 µM) was -4.55; in experiment [1] (carboplatin co-treatment 5 µM) it was -0.36; in experiment [2] (carboplatin co-treatment 0 µM) it was -0.339; in experiment [2] (carboplatin co-treatment 5 µM) it was -0.486.

For `CC1(C)[C@@H](OC(=O)CCC(=O)O)CC[C@]2(C)[C@H]3C(=O)C=C4[C@@H]5C[C@@](C)(C(=O)O)CC[C@]5(C)CC[C@@]4(C)[C@]3(C)CC[C@@H]12` [Carbenoxolone Sodium], the log2 surviving fraction in experiment [1] (carboplatin co-treatment 0 µM) stood at 0.0117; in experiment [1] (carboplatin co-treatment 5 µM), 1.64; in experiment [2] (carboplatin co-treatment 0 µM), 0.419; in experiment [2] (carboplatin co-treatment 5 µM), 0.628.

With `Oc1ccc(/C=C/c2cc(O)cc(O)c2)cc1` [Resveratrol], the log2 surviving fraction in experiment [1] (carboplatin co-treatment 0 µM) was -1.79; in experiment [1] (carboplatin co-treatment 5 µM), -4.02; in experiment [2] (carboplatin co-treatment 0 µM) it was -2.4; in experiment [2] (carboplatin co-treatment 5 µM), -4.37.

For the compound `CO[C@H]1/C=C/O[C@@]2(C)Oc3c(C)c(O)c4c(O)c(c5c(nc6cc(C)ccn65)c4c3C2=O)NC(=O)/C(C)=C\C=C\[C@H](C)[C@H](O)[C@@H](C)[C@@H](O)[C@@H](C)[C@H](OC(C)=O)[C@@H]1C` [Rifaximin (Xifaxan)], the log2 surviving fraction is 0.162 in experiment [1] (carboplatin co-treatment 0 µM), -1.05 in experiment [1] (carboplatin co-treatment 5 µM), -0.101 in experiment [2] (carboplatin co-treatment 0 µM) and -0.0841 in experiment [2] (carboplatin co-treatment 5 µM).

Turning to `CCC[C@@H]1C[C@@H](C(=O)N[C@@H]([C@H]2O[C@H](SC)[C@H](O)[C@@H](O)[C@H]2O)[C@H](C)Cl)N(C)C1` [Clindamycin hydrochloride (Dalacin)], the log2 surviving fraction worked out at 0.825 in experiment [1] (carboplatin co-treatment 0 µM), 0.623 in experiment [1] (carboplatin co-treatment 5 µM), 0.458 in experiment [2] (carboplatin co-treatment 0 µM) and 0.585 in experiment [2] (carboplatin co-treatment 5 µM).

Turning to `CCOC(=O)[C@H](CCc1ccccc1)N[C@@H](C)C(=O)N1Cc2cc(OC)c(OC)cc2C[C@H]1C(=O)O` [Moexipril HCl], the log2 surviving fraction came out at 0.259 in experiment [1] (carboplatin co-treatment 0 µM), 0.69 in experiment [1] (carboplatin co-treatment 5 µM), 1.95 in experiment [2] (carboplatin co-treatment 0 µM) and 1.29 in experiment [2] (carboplatin co-treatment 5 µM).

As to `OC(CCN1CCCCC1)(c1ccccc1)C1CC2C=CC1C2` (stereo not drawn) [Biperiden HCl], the log2 surviving fraction in experiment [1] (carboplatin co-treatment 0 µM) is -1.26; in experiment [1] (carboplatin co-treatment 5 µM), -2.46; in experiment [2] (carboplatin co-treatment 0 µM), -0.494; in experiment [2] (carboplatin co-treatment 5 µM) it was -0.48.
